According to publication PMC11784200, “Insights into antibiotic resistance promoted by quinolone exposure” (Antimicrobial Agents and Chemotherapy, 2024):
Values after ≈ are worked out from the molar mass of the structure shown.

Columns and labels:
Assay type in all cases: cell-based
E. coli MG1655 [1] = assay: microbe, parasite or virus in culture; details: for MIC: Escherichia coli, read-out: Solid-agar MIC
Description: (§1) Minimum inhibitory concentration (MIC) values were determined in triplicate as described ([55]). […] All compounds were purchased from Sigma.

E. coli MG1655 [2] = assay: Broth-based MIC; details: for MIC: Escherichia coli
Description: as §1

E. coli MG1655 [3] = details: for Antibiotic resistance induced by sub-MIC treatment with the compound: E. coli MG1655, 0.25×, 0.5×, 1× MIC, 24 h
E. coli MG1655 [4] = test system: E. coli MG1655
[5] = E. coli MG1655, read-out: Broth-based MIC
[6] = treatment with the compound, E. coli MG1655

Compound | MIC (E. coli MG1655 [1]) [µg/mL] | MIC (E. coli MG1655 [2]; [5]) [µg/mL] | other results
CO[C@H]1/C=C/O[C@@]2(C)Oc3c(C)c(O)c4c(O)c(c(/C=N/N5CCN(C)CC5)c(O)c4c3C2=O)NC(=O)/C(C)=C\C=C\[C@H](C)[C@H](O)[C@@H](C)[C@@H](O)[C@@H](C)[C@H](OC(C)=O)[C@@H]1C [RIF, rifampin] | 32 (≈ 38.9 µM) |  | 
CC1(C)S[C@@H]2[C@H](NC(=O)[C@H](N)c3ccccc3)C(=O)N2[C@H]1C(=O)O [AMP, ampicillin] | 4 (≈ 11.4 µM) | 4 (≈ 11.4 µM) | Frequencies of resistance, fold lower than that seen with CIP (E. coli MG1655 [3]; [6]): about 100 fold
COc1c(N2C[C@@H]3CCCN[C@@H]3C2)c(F)cc2c(=O)c(C(=O)O)cn(C3CC3)c12 [MXF, moxifloxacin] |  | 0.032 (≈ 0.0797 µM) | 
[H]/N=C(/N)N[C@H]1[C@H](O)[C@@H](O)[C@H](O[C@@H]2O[C@@H](C)[C@](O)(C=O)[C@H]2O[C@@H]2O[C@@H](CO)[C@H](O)[C@@H](O)[C@@H]2NC)[C@@H](N/C(N)=N\[H])[C@@H]1O [STR, streptomycin] | 24 (≈ 41.3 µM) |  | 
CCn1cc(C(=O)O)c(=O)c2cc3c(cc21)OCO3 [OXO, oxolinic acid] | 0.4 (≈ 1.53 µM) | 0.4 (≈ 1.53 µM) | Antibiotic resistance induced by sub-MIC treatment with the compound (E. coli MG1655 [3]): increased frequency of resistance to KAN, TET, AMP, CHL, CIP, and OXO
CO[C@H]1[C@H](OC(=O)c2ccc(C)[nH]2)[C@H](O)[C@@H](Oc2ccc3c(O)c(NC(=O)c4c[nH]c(C(=O)Nc5c(O)c6ccc(O[C@H]7OC(C)(C)[C@@H](OC)[C@H](OC(=O)c8ccc(C)[nH]8)[C@@H]7O)c(C)c6oc5=O)c4C)c(=O)oc3c2C)OC1(C)C [COU, coumermycin A1] |  | 16 (≈ 14.4 µM) | Frequency of KAN resistance, fold lower than that seen with CIP (E. coli MG1655 [3]; [6]): 10 fold
CO[C@@]12[C@H](COC(N)=O)C3=C(C(=O)C(C)=C(N)C3=O)N1C[C@@H]1N[C@@H]12 [MMC, mitomycin C] | 1.5 (≈ 4.49 µM) | 2 (≈ 5.98 µM) | CHL-resistant colonies after exposure (E. coli MG1655 [4]): CHL-resistant colonies were obtained
CCn1cc(C(=O)O)c(=O)c2cc(F)c(N3CCNCC3)cc21 [NOR, norfloxacin] | 0.128 (≈ 0.401 µM) | 0.032 (≈ 0.1 µM) | 
CN(C)[C@@H]1C(O)=C(C(N)=O)C(=O)[C@@]2(O)C(O)=C3C(=O)c4c(O)cccc4[C@@](C)(O)[C@H]3C[C@@H]12 [TET, tetracycline] | 1.2 (≈ 2.7 µM) | 1.2 (≈ 2.7 µM) | 
Oc1cc(Cl)ccc1Oc1ccc(Cl)cc1Cl [TRI, triclosan] | 0.08 (≈ 0.276 µM) |  | 
O=C(N[C@H](CO)[C@H](O)c1ccc([N+](=O)[O-])cc1)C(Cl)Cl [CHL, chloramphenicol] | 4 (≈ 12.4 µM) | 4 (≈ 12.4 µM) | Antibiotic resistance induced by sub-MIC treatment with the compound (E. coli MG1655 [3]): resistance to the same antibiotic administered during treatment
O=C(O)c1cn(C2CC2)c2cc(N3CCNCC3)c(F)cc2c1=O [CIP, ciprofloxacin] | 0.016 (≈ 0.0483 µM) | 0.016 (≈ 0.0483 µM) | MIC (E. coli MG1655 [2]; broth-based, MG1655 wild type, read-out: MIC): 0.016 µg/mL (≈ 0.0483 µM)
NC[C@H]1O[C@H](O[C@H]2[C@H](O)[C@@H](O[C@H]3O[C@H](CO)[C@@H](O)[C@H](N)[C@H]3O)[C@H](N)C[C@@H]2N)[C@H](O)[C@@H](O)[C@@H]1O [KAN, kanamycin] |  |  | Broth-based MIC (E. coli MG1655 [2]; E. coli MG1655): 4 µg/mL; Solid-agar MIC (E. coli MG1655 [1]): 6 µg/mL
